Measurements taken from US10299477B2 (priority 2015, dated 2019).

Legend:
Format in all cases: in vivo
Botrytis cinerea = assay: Test Example B: Gray mold on tomato; conditions: for Test B (control value class, gray mold on tomato): in vivo; for Test B control value (gray mold on tomato): preventive, control value class
Description: [Test Example B] Gray Mold on Tomato
Seeds of a test plant (tomato variety: Oogata Fukuju) were planted followed by cultivating until three to five first leaves (true leaves) appeared.

Plasmopara viticola = assay: Test Example G: Downy mildew on vine; conditions: for Test G (control value class): 250 ppm spray; for Test G (control value class, downy mildew on vine): 250 ppm, sprayed 2.5 ml/pot before inoculation; for Test G control value (downy mildew on vine): 250 ppm spray (2.5 ml/pot), preventive, control value class
Description: [Test Example G] Downy Mildew on Vine
Seeds of a test plant (grape variety: Neomuscat) were planted followed by cultivating until three to four first leaves appeared. […] After the sprayed dilutions were dried, a zoosporangia suspension (1-2×10^4 zoosporangia/ml) of Plasmopara viticola was inoculated to the plants by spraying.

Puccinia recondita = assay: Test Example E: Brown rust on wheat; conditions: for Test E (control value class, brown rust on wheat): in vivo; for Test E control value (brown rust on wheat): preventive, control value class
Description: [Test Example E] Brown Rust on Wheat

[1] = tested on: Blumeria graminis f sp. hordei; assay: Test Example D: Powdery mildew on barley; conditions: for Test D (control value class, powdery mildew on barley): in vivo; for Test D control value (powdery mildew on barley): preventive, control value class
Description: [Test Example D] Powdery Mildew on Barley
After the sprayed dilutions were dried, conidia of Blumeria graminis f sp. hordei were inoculated to the plants by shaking off.

Alternaia brassicicola = assay: Test Example C: Alternaria sooty spot on cabbage; conditions: for Test C (control value class, Alternaria sooty spot on cabbage): in vivo; for Test C control value (Alternaria sooty spot on cabbage): preventive, control value class
Description: [Test Example C] Alternaria Sooty Spot on Cabbage
Seeds of a test plant (cabbage variety: Shikidori) were planted followed by cultivating until the cotyledons extended.

[2] = gray mold on tomato, Botrytis cinerea, 250 ppm spray
[3] = downy mildew on vine, Plasmopara viticola, 7-10 days after inoculation
[4] = brown rust on wheat, Puccinia recondita, 250 ppm spray
[5] = powdery mildew on barley, 250 ppm spray
[6] = Alternaria sooty spot on cabbage, 250 ppm spray
[7] = evaluated 7-10 days after inoculation

COc1ccc(Cl)c(-c2cc(Cl)c(=O)n(N)c2-c2c(F)cccc2F)c1 [Compound 423]
Test B (control value class) (Botrytis cinerea; [2]): H (H shows more than 50% of control values) | Test G (control value class) (Plasmopara viticola; [3]): H (H shows more than 50% of control values) | Test E (control value class) (Puccinia recondita; [4]): H (H shows more than 50% of control values) | Test D (control value class) [1, 5]: L (L shows 50% or less of control values) | Test C (control value class) (Alternaia brassicicola; [6]): H (H shows more than 50% of control values)

CCn1c(-c2c(F)cc(OC)cc2F)c(-c2cc(F)cc(F)c2Cl)ccc1=O [Compound 693]
Test B (control value class, gray mold on tomato) (Botrytis cinerea): H (H shows more than 50% of control values) | Test G (control value class, downy mildew on vine) (Plasmopara viticola; [7]): H (H shows more than 50% of control values) | Test E (control value class, brown rust on wheat) (Puccinia recondita): H (H shows more than 50% of control values) | Test D (control value class, powdery mildew on barley) [1]: H (H shows more than 50% of control values) | Test C (control value class, Alternaria sooty spot on cabbage) (Alternaia brassicicola): H (H shows more than 50% of control values)

Cn1c(-c2c(F)cccc2F)c(-c2ccccc2C(F)(F)F)ccc1=O [Compound 157]
Test B control value (Botrytis cinerea; Gray mold on tomato): H (H shows more than 50% of control values) | Test G control value (Plasmopara viticola; Downy mildew on vine, 250 ppm sprayed before inoculation, 7-10 days after inoculation): H (H shows more than 50% of control values) | Test E control value (Puccinia recondita; Brown rust on wheat): H (H shows more than 50% of control values) | Test D control value ([1]; Powdery mildew on barley): H (H shows more than 50% of control values) | Test C control value (Alternaia brassicicola; Alternaria sooty spot on cabbage): H (H shows more than 50% of control values)

CCn1c(-c2c(F)cccc2F)c(-c2cccc(OC(F)(F)F)c2)ccc1=O [Compound 217]
Test B control value (gray mold on tomato) (Botrytis cinerea; 250 ppm spray): L (L shows 50% or less of control values) | Test G control value (downy mildew on vine) (Plasmopara viticola; 7-10 days after inoculation): H (H shows more than 50% of control values) | Test E control value (brown rust on wheat) (Puccinia recondita; 250 ppm spray): H (H shows more than 50% of control values) | Test D control value (powdery mildew on barley) ([1]; 250 ppm spray): H (H shows more than 50% of control values) | Test C control value (Alternaria sooty spot on cabbage) (Alternaia brassicicola; 250 ppm spray): H (H shows more than 50% of control values)

CCn1c(-c2c(F)cc(Cl)cc2F)c(-c2cc(F)ccc2Cl)cc(Cl)c1=O [Compound 602]
Test B (control value class, gray mold on tomato) (Botrytis cinerea): H (H shows more than 50% of control values) | Test G (control value class, downy mildew on vine) (Plasmopara viticola; [7]): L (L shows 50% or less of control values) | Test E (control value class, brown rust on wheat) (Puccinia recondita): H (H shows more than 50% of control values) | Test D (control value class, powdery mildew on barley) [1]: H (H shows more than 50% of control values) | Test C (control value class, Alternaria sooty spot on cabbage) (Alternaia brassicicola): H (H shows more than 50% of control values)

CCn1c(-c2c(F)cc(F)cc2F)c(-c2cccc(OC)c2Cl)cc(Br)c1=O [Compound 620]
Test B (control value class, gray mold on tomato) (Botrytis cinerea): H (H shows more than 50% of control values) | Test G (control value class, downy mildew on vine) (Plasmopara viticola; [7]): L (L shows 50% or less of control values) | Test E (control value class, brown rust on wheat) (Puccinia recondita): H (H shows more than 50% of control values) | Test D (control value class, powdery mildew on barley) [1]: H (H shows more than 50% of control values) | Test C (control value class, Alternaria sooty spot on cabbage) (Alternaia brassicicola): H (H shows more than 50% of control values)

O=c1c(Cl)cc(-c2cccc(F)c2Cl)c(-c2c(F)cccc2F)n1CC(F)F [Compound 511]
Test B (control value class) (Botrytis cinerea; [2]): H (H shows more than 50% of control values) | Test G (control value class) (Plasmopara viticola; [3]): H (H shows more than 50% of control values) | Test E (control value class) (Puccinia recondita; [4]): H (H shows more than 50% of control values) | Test D (control value class) [1, 5]: H (H shows more than 50% of control values) | Test C (control value class) (Alternaia brassicicola; [6]): H (H shows more than 50% of control values)

CCN1C(=O)CCC(c2ccccc2F)=C1c1c(F)cc(F)cc1F [Compound 514]
Test B (control value class) (Botrytis cinerea; [2]): H (H shows more than 50% of control values) | Test G (control value class) (Plasmopara viticola; [3]): L (L shows 50% or less of control values) | Test E (control value class) (Puccinia recondita; [4]): H (H shows more than 50% of control values) | Test D (control value class) [1, 5]: H (H shows more than 50% of control values) | Test C (control value class) (Alternaia brassicicola; [6]): H (H shows more than 50% of control values)

CCn1c(-c2c(F)cccc2F)c(-c2ccc(C)cc2)cc(Cl)c1=O [Compound 272]
Test B control value (gray mold on tomato) (Botrytis cinerea; 250 ppm spray): H (H shows more than 50% of control values) | Test G control value (downy mildew on vine) (Plasmopara viticola; 7-10 days after inoculation): H (H shows more than 50% of control values) | Test E control value (brown rust on wheat) (Puccinia recondita; 250 ppm spray): H (H shows more than 50% of control values) | Test D control value (powdery mildew on barley) ([1]; 250 ppm spray): H (H shows more than 50% of control values) | Test C control value (Alternaria sooty spot on cabbage) (Alternaia brassicicola; 250 ppm spray): H (H shows more than 50% of control values)

CCCn1c(-c2c(F)cccc2F)c(-c2cc(OC)ccc2Cl)ccc1=O [Compound 399]
Test B (control value class) (Botrytis cinerea; [2]): H (H shows more than 50% of control values) | Test G (control value class) (Plasmopara viticola; [3]): H (H shows more than 50% of control values) | Test E (control value class) (Puccinia recondita; [4]): H (H shows more than 50% of control values) | Test D (control value class) [1, 5]: H (H shows more than 50% of control values) | Test C (control value class) (Alternaia brassicicola; [6]): H (H shows more than 50% of control values)

Cn1c(-c2c(F)cccc2F)c(-c2c(F)cccc2Cl)cc(Cl)c1=O [Compound 405]
Test B (control value class) (Botrytis cinerea; [2]): H (H shows more than 50% of control values) | Test G (control value class) (Plasmopara viticola; [3]): L (L shows 50% or less of control values) | Test E (control value class) (Puccinia recondita; [4]): H (H shows more than 50% of control values) | Test D (control value class) [1, 5]: H (H shows more than 50% of control values) | Test C (control value class) (Alternaia brassicicola; [6]): H (H shows more than 50% of control values)

CCn1c(-c2c(F)cc(OC)cc2F)c(-c2ccccc2F)ccc1=O [Compound 530]
Test B (control value class) (Botrytis cinerea; [2]): H (H shows more than 50% of control values) | Test G (control value class) (Plasmopara viticola; [3]): H (H shows more than 50% of control values) | Test E (control value class) (Puccinia recondita; [4]): H (H shows more than 50% of control values) | Test D (control value class) [1, 5]: H (H shows more than 50% of control values) | Test C (control value class) (Alternaia brassicicola; [6]): H (H shows more than 50% of control values)

COc1cc(F)c(-c2c(-c3ccc(OC)cc3Cl)cc(Cl)c(=O)n2C)c(F)c1 [Compound 776]
Test B (control value class) (Botrytis cinerea; Gray mold on tomato, control value=100{1-(n/3)}): L (L shows 50% or less of control values) | Test G (control value class) (Plasmopara viticola; Downy mildew on vine, 2.5 ml/pot, evaluated 7-10 days after inoculation): L (L shows 50% or less of control values) | Test E (control value class) (Puccinia recondita; Brown rust on wheat, control value=100{1-(n/3)}): L (L shows 50% or less of control values) | Test D (control value class) ([1]; Powdery mildew on barley, control value=100{1-(n/3)}): L (L shows 50% or less of control values) | Test C (control value class) (Alternaia brassicicola; Alternaria sooty spot on cabbage, control value=100{1-(n/3)}): L (L shows 50% or less of control values)

CN1C(=O)CCC(c2ccccc2Cl)=C1c1c(F)cc(F)cc1F [Compound 705]
Test B (control value class, gray mold on tomato) (Botrytis cinerea): H (H shows more than 50% of control values) | Test G (control value class, downy mildew on vine) (Plasmopara viticola; [7]): L (L shows 50% or less of control values) | Test E (control value class, brown rust on wheat) (Puccinia recondita): H (H shows more than 50% of control values) | Test D (control value class, powdery mildew on barley) [1]: H (H shows more than 50% of control values) | Test C (control value class, Alternaria sooty spot on cabbage) (Alternaia brassicicola): L (L shows 50% or less of control values)

CCN1C(=O)CCC(c2ccc(C)cc2)=C1c1c(F)cccc1F [Compound 267]
Test B control value (gray mold on tomato) (Botrytis cinerea; 250 ppm spray): L (L shows 50% or less of control values) | Test G control value (downy mildew on vine) (Plasmopara viticola; 7-10 days after inoculation): L (L shows 50% or less of control values) | Test E control value (brown rust on wheat) (Puccinia recondita; 250 ppm spray): H (H shows more than 50% of control values) | Test D control value (powdery mildew on barley) ([1]; 250 ppm spray): H (H shows more than 50% of control values) | Test C control value (Alternaria sooty spot on cabbage) (Alternaia brassicicola; 250 ppm spray): H (H shows more than 50% of control values)

Cc1cc(-c2ccc(F)cc2Cl)c(-c2c(F)cc(F)cc2F)n(C)c1=O [Compound 613]
Test B (control value class, gray mold on tomato) (Botrytis cinerea): H (H shows more than 50% of control values) | Test G (control value class, downy mildew on vine) (Plasmopara viticola; [7]): L (L shows 50% or less of control values) | Test E (control value class, brown rust on wheat) (Puccinia recondita): H (H shows more than 50% of control values) | Test D (control value class, powdery mildew on barley) [1]: H (H shows more than 50% of control values) | Test C (control value class, Alternaria sooty spot on cabbage) (Alternaia brassicicola): H (H shows more than 50% of control values)
